Article PMC4336329 (PLoS ONE, 2015)
Among all 310,000 compounds or so, about 14,000 (4.5%) showed an effect of 50% or more. The effect is printed as a negative number. The list shows a part of the results.

Target: human ether-à-go-go-related gene (hERG) potassium channel (human, UniProt Q12809)
Experiment: primary screen, population patch clamp on CHO cells stably expressing hERG
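Also: peak tail current of the secondary pulse compared with the same well before compound.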

human ether-à-go-go-related gene (hERG) potassium channel, sequence (Q12809 whole entry, looked up): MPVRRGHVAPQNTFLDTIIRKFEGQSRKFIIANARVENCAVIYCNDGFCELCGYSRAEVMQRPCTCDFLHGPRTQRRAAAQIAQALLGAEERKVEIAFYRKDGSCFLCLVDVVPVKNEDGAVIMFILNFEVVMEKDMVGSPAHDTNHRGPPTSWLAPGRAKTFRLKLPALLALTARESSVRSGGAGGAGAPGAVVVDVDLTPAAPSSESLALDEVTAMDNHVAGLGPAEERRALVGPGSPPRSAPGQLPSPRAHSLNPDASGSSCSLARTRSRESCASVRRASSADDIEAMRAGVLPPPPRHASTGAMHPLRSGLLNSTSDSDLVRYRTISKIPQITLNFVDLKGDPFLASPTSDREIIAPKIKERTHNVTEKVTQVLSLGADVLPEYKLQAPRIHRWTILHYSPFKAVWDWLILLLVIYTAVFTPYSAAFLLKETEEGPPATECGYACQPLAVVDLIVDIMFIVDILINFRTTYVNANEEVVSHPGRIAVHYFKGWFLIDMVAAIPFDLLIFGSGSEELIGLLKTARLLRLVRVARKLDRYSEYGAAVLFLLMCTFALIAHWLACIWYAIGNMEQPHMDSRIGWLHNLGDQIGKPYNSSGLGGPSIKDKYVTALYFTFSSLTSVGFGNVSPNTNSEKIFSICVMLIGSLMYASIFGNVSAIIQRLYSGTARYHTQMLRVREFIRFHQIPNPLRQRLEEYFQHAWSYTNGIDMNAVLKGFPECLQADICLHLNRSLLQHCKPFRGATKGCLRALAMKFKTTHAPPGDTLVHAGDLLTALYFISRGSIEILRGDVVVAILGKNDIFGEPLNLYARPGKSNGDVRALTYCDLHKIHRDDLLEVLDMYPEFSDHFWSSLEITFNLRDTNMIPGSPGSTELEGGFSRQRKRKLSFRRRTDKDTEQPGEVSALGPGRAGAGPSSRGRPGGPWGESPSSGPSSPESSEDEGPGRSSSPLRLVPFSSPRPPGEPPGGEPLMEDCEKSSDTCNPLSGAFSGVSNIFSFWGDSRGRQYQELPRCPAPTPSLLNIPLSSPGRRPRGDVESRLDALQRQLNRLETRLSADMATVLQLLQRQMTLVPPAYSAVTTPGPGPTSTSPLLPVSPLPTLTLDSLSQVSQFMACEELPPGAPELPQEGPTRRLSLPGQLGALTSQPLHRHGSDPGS

SMILES	hERG current change (%, negative = inhibition) at 10uM [%]
Oc1ccc(-c2n[nH]c(=S)n2Cc2ccco2)cc1	9.81
COc1ccc(CNC(=O)C2CCCN(S(=O)(=O)c3c(C)nn(C)c3C)C2)cc1 (stereo not drawn)	8.12
CCn1cnc2cc(NCc3ccc(N(C)C)cc3)ccc21	-8.28
O=C(CN1CCN(c2ccc(F)cc2)CC1)Nc1cc(C(F)(F)F)ccc1Cl	-2.67
CC(=O)N1CCc2cc(S(=O)(=O)N3CC(C)CC(C)C3)ccc21 (stereo not drawn)	5.39
CC(Sc1nc(N)cc(=O)[nH]1)C(=O)Nc1cccc(Cl)c1 (stereo not drawn)	20.6
O=C(Cc1cccs1)N1CCN(C(=O)C2CCCO2)CC1 (stereo not drawn)	1.22
COc1cc2c(c(OC)c1OC)-c1ccc(OC)c(=O)cc1C(NC(C)=O)CC2 (stereo not drawn)	-6.1
Cc1cc(Cl)ccc1OCC(=O)N1CC(C)CC(C)C1 (stereo not drawn)	-32.5
CCOC(=O)c1nn(-c2ccccc2)c2nc(Nc3ccccc3)cc(=O)n12	-0.0919
CC(=O)N/C(=C\c1ccccc1)C(=O)NCc1ccc2c(c1)OCO2	5.79
CCOC(CC(=O)NNC(=O)c1c(-c2ccccc2Cl)noc1C)OCC	17.7
COc1ccc(OC)c(NC(=O)CCCN2C(=O)C3C4C=CC(C4)C3C2=O)c1 (stereo not drawn)	-3.43
O=C(C1CCCCC1)N1CCCn2c1nc1ccccc12	-11.7
COc1ccc(Nc2c(C)cccc2C)cc1	17.7
CCN(CC)CCNC(=O)c1c(O)c2c([nH]c1=O)CCCC2	0.236
Cc1ncc(C[n+]2ccc(C)c(C)c2)c(N)n1.[Cl-]	13.5
COc1ccc(C)cc1NC(=O)Cn1c(=O)oc2ccccc21	19.1
CC1CC(C)CN(C(=O)c2ccc(S(=O)(=O)N3CCCC3)cc2)C1 (stereo not drawn)	30.6

SMILES	hERG current change (%, negative = inhibition) at 10uM [%]
CCOC(=S)SCC(=O)Nc1nccs1	3.24
CCn1c(Cc2ccc(OC)cc2)nnc1SCC(=O)N1CCN(c2ccccc2)CC1	-20.6
COc1cccc(C2CCCN2Cc2nc(-c3sccc3C)oc2C)c1 (stereo not drawn)	20.6
COc1ccc(CC(=O)NCc2n[nH]c(=S)n2-c2ccccc2OC)cc1	27.2
CCOc1ccc(NC(=O)CSc2nc3c([nH]c4ccccc43)c(=O)n2C)cc1	14.4
O=C(O)CN1CCCCCC1=O	37.9
COc1ccc(CCN(C)C(=O)C2CCN(Cc3cccc(OC)c3OC)CC2)cc1OC.O=C(O)C(=O)O	-3.13
COc1cc(OC)cc(C(=O)Nc2nc(CC(=O)NCCc3ccccc3)cs2)c1	-36
Cc1oc2c(CN3CCCC(C)C3)c(O)ccc2c(=O)c1-c1ccccc1 (stereo not drawn)	-0.221
CC1CCCC(NC(=O)CNCc2ccccc2F)C1C.O=C(O)C(=O)O (stereo not drawn)	14.7
CCc1ccc(NC(=S)NC(=O)CC(C)C)cc1	9.11
Nc1nonc1-c1nc2ccccc2n1CCC(=O)O	-7.6
COC(=O)c1ccc(NC(=O)C2C3C=CC(C3)C2C(=O)O)cc1 (stereo not drawn)	5.71
COC(=O)c1ccc(NC(=O)c2ccc(F)cc2)o1	12.3
C=CCNC(=O)C1CCN(c2cc(C)nc(-c3ccccc3)n2)CC1	-58.2
CC(C)c1ccc(NC(=O)C2CCN(C(=O)[C@@H]3Cc4ccccc4CN3)CC2)cc1	-67.4
O=C(CCc1n[nH]c(=O)[nH]c1=O)N1CCOCC1	11.1
Cc1c(Cl)cccc1NC(=O)C1CCCCC1	8.37
Cc1cccc(C(=O)NCC(=O)N2CCN(c3ccc(Cl)cc3)CC2)c1	-26.3

SMILES	hERG current change (%, negative = inhibition) at 10uM [%]
Cc1cc(C(=O)N/N=C/c2cccc([N+](=O)[O-])c2O)n[nH]1	4.6
COC(=O)c1[nH]c2ccccc2c1NC(=O)C(C)N1CCOCC1 (stereo not drawn)	9.7
CC(C)C[C@H](NC(=O)[C@@H]1O[C@H]1C(=O)O)C(=O)NCCCCN=C(N)N	-32.1
Cc1ccc(NC(=O)Nc2cccc([N+](=O)[O-])c2)cc1F	4.8
O=C1c2cccnc2C(=O)N1Cc1ccc(S(=O)(=O)N2CCN(c3ccccc3)CC2)cc1	19.6
Br.CCCn1c(=N)n(CC(=O)c2ccc(Cl)c(Cl)c2)c2ccccc21	-51.5
COc1cc(C(=O)OCC(=O)c2c(N)n(C)c(=O)n(C)c2=O)ccc1OCCC(C)C	11.8
Cc1ccc(N2CC(C(=O)N3CCC(C(=O)Nc4ccc(Br)cc4)CC3)CC2=O)cc1 (stereo not drawn)	-64.2
C=CCN(C(=O)c1csnn1)C(C(=O)NC1CCCCC1)c1ccccc1 (stereo not drawn)	14.8
O=C(NNc1cc(Cl)ccc1Cl)c1cccs1	7.63
CCc1cc2c(SCC(=O)Nc3ncc(Cl)c(C)c3Cl)ncnc2s1	-7.91
Cc1ccc(NC(=O)c2cnc(N3CCN(c4ccccn4)CC3)c3ccccc23)c(Br)c1	10.7
Nc1nnnn1/N=C\c1ccc(Cl)c([N+](=O)[O-])c1	3.26
COc1ccc(/C=C/C(=O)Nc2nc(C)c(C(=O)N(C)C)s2)cc1OC	-20.7
COc1ccc2nc3ccccc3nc2c1NC(=O)c1ccc(Cl)cc1Cl	1.86
O=C(Cn1c(=O)c2cccn2c2cccnc21)N1CCN(c2ccc(Cl)cc2)CC1	-47
Cc1nn(CCO)c2ncc(C(=O)c3cc(F)ccc3O)cc12	21.5
COc1ccc(S(=O)(=O)Nc2cc3c(C(C)=O)c(C)oc3c3ccccc23)cc1	-5.49
O=C(COC(=O)c1ccc([N+](=O)[O-])s1)NC(c1ccccc1)c1ccccc1	4.45
